This is an account of results in patent US20100015650.

In this series the test system is BRB1 tyrosine kinase substrate peptide.
Sequence of BRB1 tyrosine kinase substrate peptide (chain, as listed by the source): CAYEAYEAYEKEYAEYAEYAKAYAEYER

Regarding EGFR (sequence left out), the Signal to Noise ratio with BRB1 Peptide (TR-FRET kinase assay; kinase 0.5 nM) was 10.

As to FGFR1 (sequence left out), the Signal to Noise ratio with BRB1 Peptide (TR-FRET kinase assay; kinase 0.5 nM) amounted to 26.4.

As to JAK1 (sequence left out), the Signal to Noise Ratio with BRB1 Peptide (TR-FRET kinase assay; kinase 7 nM) was 13.7.

For the substance KDR (sequence left out), the Signal to Noise ratio with BRB1 Peptide (TR-FRET kinase assay; kinase 0.25 nM) turned out to be 16.9.
